Experimental data taken from patent US9957330B2, “Polypeptides” (AFFIBODY AB, priority 2012, dated 2018).

Experiments:
[1] = CD analysis, variable temperature measurement (melting temperature); assay type: physicochemical; conditions: CD at 221 nm, 20 to 90° C., 0.5 mg/ml in PBS, dimer format
Experimental: The purified Z variants in dimer format were thawed and diluted to 0.5 mg/ml in PBS. For each diluted Z variant, a CD spectrum at 250-195 nm was obtained at 20° C. In addition, a variable temperature measurement (VTM) was performed to determine the melting temperature (Tm). In the VTM, the absorbance was measured at 221 nm while the temperature was raised from 20 to 90° C., with a temperature slope of 5° C./min. The CD measurements were performed on a Jasco J-810 spectropolarimeter (Jasco Scandinavia AB) using a cell with an optical path-length of 1 mm.

human CAIX = molecular target: T1, human CAIX (Homo sapiens, UniProt Q16790); assay: Biacore binding analysis of dimeric Z variants; conditions: 1 μM; for binding to human CAIX (Biacore sensorgram): over immobilized human CAIX (590 RU)
T1 construct: purchased R&D Systems 2188-CA
Experimental: The interactions of five NEM treated His6-tagged dimeric CAIX-binding Z variants with human CAIX were analyzed in a Biacore 2000 instrument (GE Healthcare). Human CAIX was immobilized in a flow cell on the carboxylated dextran layer of a CM5 chip surface (GE Healthcare). The immobilization was performed using amine coupling chemistry according to the manufacturer's protocol. One flow cell surface on the chip was activated and deactivated for use as blank during analyte injections. The analytes, i.e. dimeric Z variants diluted in HBS-EP running buffer (GE Healthcare) to a final concentration of 1 μM, were injected at a flow-rate of 10 μl/min for 5 minutes. After 5 minutes of dissociation, the surfaces were regenerated with one injection of 10 mM HCl. The results were analyzed in BiaEvaluation software (GE Healthcare). Curves of the blank surface were subtracted from the curves of the ligand surface.

CAIX on LS174T cells = molecular target: T2, CAIX on LS174T cells (Homo sapiens, UniProt Q16790); assay: Immunofluorescence staining of LS174T cells, flow cytometry and fluorescence microscopy; assay type: cell-based; conditions: for flow cytometry analysis, shift in mean fluorescence intensity (MFI): 10 μg/ml, His6-(Z#####)2-Cys-NEM form
T2 construct: Colorectal carcinoma cells LS174T, expressing CAIX on their surface; endogenous in cells; host or cells: LS174T colorectal carcinoma cells
Experimental: Colorectal carcinoma cells LS174T, expressing CAIX on their surface, were cultured in EMEM (Lonza) supplemented with 10% fetal calf serum (FCS), 1% glutamine, 1% non-essential amino acids, 1% sodium pyruvate and 1% Penicillin-Streptomycin (PEST). On the day of assay, LS174T cells were trypsinated, counted and 0.1-0.2×10^6 cells were added to 5 ml falcon tubes. The cells were pelleted by centrifugation at 1200 rpm and supernatant removed. The cells were stained with different purified Z variants in His6-(Z#####)2-Cys-NEM form. For screening, 100 μl of the different binders diluted to 10 μg/ml in PBS supplemented with 2% FCS (PBS 2% FCS) was added and cells were incubated for two hours at 4° C. PBS was used as background control and an unrelated Z variant (Z03638 (SEQ ID NO:356)) was used as negative control. The cells were washed once by filling up the tube with PBS and pelleting the cells by centrifugation. The pelleted cells were resuspended in 100 μl of goat anti-Z variant Ig (cat. no. 20.1000.01.0005; Affibody AB, Sweden), 5 μg/ml and incubated for one hour at 4° C. The goat anti-CAIX specific antibody MAB2188 (R&D systems) was used as a positive control at a concentration of 5 μg/ml. Cells were subsequently washed in PBS as described and resuspended in 100 μl of Alexa488-labeled anti-goat antibody (Invitrogen) at a concentration of 10 μg/ml. After 45 minutes of incubation at 4° C. cells were washed in PBS, resuspended in 300 μl of PBS and subjected to flow cytometry analysis using a FACSCantoll (BD Biosciences).
After the flow cytometry analysis, cells were added to glass slides and fixed in 2% formaldehyde in PBS for 15 minutes at RT. After washing carefully in PBS, the slides were dried and mounted with anti-fading solution (Vectashield, Vector laboratories). The staining was analyzed with a Leica DM-LA UV microscope (Leica Microsystems).

[2] = molecular target: T3, CAIX-expressing SK-RC-52 cells (Homo sapiens, UniProt Q16790); assay: […] binding analysis on living cells; assay type: cell-based; conditions: living SK-RC-52 cells, 4° C.; for ka1 / kd1: first binding event; for ka2 / kd2: second binding event
T3 construct: The CAIX-expressing renal clear cell carcinoma cell line SK-RC-52; endogenous in cells; host or cells: SK-RC-52 renal clear cell carcinoma cells (provided by Active Biotech, Sweden)
Experimental: The CAIX-expressing renal clear cell carcinoma cell line SK-RC-52 was seeded on a local area of a cell culture dish (Nunclon™, Size 100620, NUNC NS, Roskilde, Denmark). The binding of ^99mTc-labeled Z variants to living cells was monitored in real-time at 4° C. using a […] Yellow (Ridgeview Instruments, Sweden) and established methods (Björkelund et al Appl Radiat Isot. 68:2372-6, 2010). […] The kinetic parameters were determined using the […] software.

SK-RC-52 cells = assay: Cellular processing (internalization) by SK-RC-52 cells; assay type: cell-based; conditions: 37° C.
Experimental: To evaluate the cellular processing, SK-RC-52 cells were incubated with the radiolabeled Z variants at 37° C. and 5% CO2. At designated time points (1, 2, 4, 8 and 24 h), a set of three dishes was removed from the incubator, the media was collected and cells were washed with ice cold serum-free medium. Cells were then treated with 0.5 ml of 0.2 M glycine buffer, pH 2, containing 4 M urea, for 5 min on ice. The acidic solution was collected and cells were washed with 0.5 ml glycine buffer. The acidic fractions were pooled. The cells were then incubated with 0.5 ml 1 M NaOH at 37° C. for at least 20 min. The cell debris was collected and the dishes were additionally washed with 0.5 ml of NaOH solution. The alkaline fractions were pooled. The radioactivity in the acidic solution was considered as membrane bound, and in the alkaline fractions as internalized.

Molecule | Tm [1] [°C] | binding to human CAIX (Biacore sensorgram) (human CAIX) | membrane staining by fluorescence microscopy (CAIX on LS174T cells) | flow cytometry analysis, shift in mean fluorescence intensity (MFI) (CAIX on LS174T cells) | dissociation curve to human CAIX (human CAIX; 5 min dissociation) | ka1 [2] [M⁻¹ s⁻¹] | kd1 [2] [s⁻¹] | ka2 [2] | kd2 [2] [s⁻¹] | Fraction internalized radioactivity after 24 h (SK-RC-52 cells) [%]
His6-(Z04187)2-Cys-NEM: CAIX binding Z variant Z04187 (SEQ ID NO:350) from primary selection, tested in dimer format (protein) MGSSHHHHHHLQVDAKYAKENLWAGWEIDDLPNLTHSQRNAFIYKLWDDPSQSSELLAEAKKLNDAQAPKVDAKYAKENLWAGWEIDDLPNLTHSQRNAFIYKLWDDPSQSSELLAEAKKLNDAQAPKVDC | 51 | showed binding to CAIX | membrane staining | positive |  |  |  |  |  | 
His6-(Z04191)2-Cys-NEM: CAIX binding Z variant Z04191 (SEQ ID NO:351) from primary selection, tested in dimer format (protein) MGSSHHHHHHLQVDAKYAKEDVNAWQEIIKLPNLTIFQRDAFIYKLWDDPSQSSELLAEAKKLNDAQAPKVDAKYAKEDVNAWQEIIKLPNLTIFQRDAFIYKLWDDPSQSSELLAEAKKLNDAQAPKVDC | 60 | showed binding to CAIX |  | positive |  |  |  |  |  | 
His6-(Z04196)2-Cys-NEM: CAIX binding Z variant Z04196 (SEQ ID NO:352) from primary selection, tested in dimer format (protein) MGSSHHHHHHLQVDAKYAKEWKFASIEIADLPNLTQHQKDAFIFKLWDDPSQSSELLAEAKKLNDAQAPKVDAKYAKEWKFASIEIADLPNLTQHQKDAFIFKLWDDPSQSSELLAEAKKLNDAQAPKVDC | 61 | showed binding to CAIX |  | positive | slowest dissociation curve |  |  |  |  | 
His6-(Z04208)2-Cys-NEM: CAIX binding Z variant Z04208 (SEQ ID NO:353) from primary selection, tested in dimer format (protein) MGSSHHHHHHLQVDAKYAKEHEWAGVEIQSLPNLTTQQKHAFIYKLWDDPSQSSELLAEAKKLNDAQAPKVDAKYAKEHEWAGVEIQSLPNLTTQQKHAFIYKLWDDPSQSSELLAEAKKLNDAQAPKVDC | 62 | showed binding to CAIX | membrane staining | positive |  |  |  |  |  | 
His6-(Z04421)2-Cys-NEM: CAIX binding Z variant Z04421 (SEQ ID NO:354) from primary selection, tested in dimer format (protein) MGSSHHHHHHLQVDAKYAKEDRYAWTEIHKLPNLTVRQQNAFIYKLWDDPSQSSELLAEAKKLNDAQAPKVDAKYAKEDRYAWTEIHKLPNLTVRQQNAFIYKLWDDPSQSSELLAEAKKLNDAQAPKVDC | 51 | showed binding to CAIX | membrane staining | positive |  |  |  |  |  | 
^99mTc-(HE)3-Z09784: (HE)3-Z09784 radiolabeled with [99mTc(CO)3]+ (conjugate) HEHEHEAEAKYAKEWWWAGIEIADLPNLTQQQRDAFIYKLWDDPSQSSELLSEAKKLNDSQAPKVD |  |  |  |  |  | 12000 | 0.00011 | 3.4 × 10^4 1/MS | 0.0025 | 43
^99mTc-(HE)3-Z09783: (HE)3-Z09783 radiolabeled with [99mTc(CO)3]+ (conjugate) HEHEHEAEAKYAKENIFAGWEIDDLPNLTDEQRNAFIYKLWDDPSQSSELLSEAKKLNDSQAPKVD |  |  |  |  |  | 5900 | 2.7e-05 | 3.8 × 10^3 1/MS | 0.00023 | 25
^99mTc-(HE)3-Z09782: (HE)3-Z09782 radiolabeled with [99mTc(CO)3]+ (conjugate) HEHEHEAEAKYAKENLFAGWEISDLPNLTDYQRNAFIYKLWDDPSQSSELLSEAKKLNDSQAPKVD |  |  |  |  |  | 3300 | 1.9e-05 |  |  | 25
